Source: publication PMC4605303
Positions count from the first letter of the chain named. Read-outs that look alike come from different tables or passages of the source. No constants are given. Whether binding was seen depends on the method and setting. For part of these data: In cells and extracts the contact can be indirect. Some entries that bind do so weakly or less than the wild type. For part of these data: Sequences can lack the tags named with a protein. One block for each molecule: values may come before it.

By UniProt entry, the sequences of proteins in these tests, tags left out. Where a name states a change or a piece, a line headed by the entry shows the natural chain unless it says otherwise.
UniProt Q9UHK0: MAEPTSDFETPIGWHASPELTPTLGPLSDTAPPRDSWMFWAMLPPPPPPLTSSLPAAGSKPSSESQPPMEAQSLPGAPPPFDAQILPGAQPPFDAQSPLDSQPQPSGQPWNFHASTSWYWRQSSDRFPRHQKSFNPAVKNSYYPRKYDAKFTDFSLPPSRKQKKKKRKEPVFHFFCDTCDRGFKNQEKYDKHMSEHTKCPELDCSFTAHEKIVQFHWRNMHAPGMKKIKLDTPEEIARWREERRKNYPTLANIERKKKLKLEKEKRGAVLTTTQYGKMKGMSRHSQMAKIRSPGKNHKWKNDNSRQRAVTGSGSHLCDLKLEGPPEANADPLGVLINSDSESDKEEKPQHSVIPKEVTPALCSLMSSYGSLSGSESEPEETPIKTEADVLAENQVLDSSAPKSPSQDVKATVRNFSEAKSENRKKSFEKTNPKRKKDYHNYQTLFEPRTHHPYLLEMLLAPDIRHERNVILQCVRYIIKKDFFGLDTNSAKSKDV
UniProt Q8WWY3: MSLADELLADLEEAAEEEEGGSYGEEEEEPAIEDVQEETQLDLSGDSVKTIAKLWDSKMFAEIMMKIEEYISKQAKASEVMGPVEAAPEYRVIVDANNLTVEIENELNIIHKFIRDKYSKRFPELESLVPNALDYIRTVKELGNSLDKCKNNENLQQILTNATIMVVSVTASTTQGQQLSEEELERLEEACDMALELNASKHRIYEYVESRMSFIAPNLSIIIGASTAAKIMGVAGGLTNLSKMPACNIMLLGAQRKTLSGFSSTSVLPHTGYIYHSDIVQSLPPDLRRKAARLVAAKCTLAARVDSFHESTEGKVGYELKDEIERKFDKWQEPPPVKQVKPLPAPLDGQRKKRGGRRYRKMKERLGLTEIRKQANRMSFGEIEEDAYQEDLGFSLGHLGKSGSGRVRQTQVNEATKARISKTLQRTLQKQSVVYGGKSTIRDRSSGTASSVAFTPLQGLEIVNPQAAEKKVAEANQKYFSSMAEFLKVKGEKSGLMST
UniProt Q8WXD5: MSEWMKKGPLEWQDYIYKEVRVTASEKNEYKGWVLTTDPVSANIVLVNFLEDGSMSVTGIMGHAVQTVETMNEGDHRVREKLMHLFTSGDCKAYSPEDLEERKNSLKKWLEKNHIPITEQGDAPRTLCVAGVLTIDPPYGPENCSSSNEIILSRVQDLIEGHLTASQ
UniProt P57678: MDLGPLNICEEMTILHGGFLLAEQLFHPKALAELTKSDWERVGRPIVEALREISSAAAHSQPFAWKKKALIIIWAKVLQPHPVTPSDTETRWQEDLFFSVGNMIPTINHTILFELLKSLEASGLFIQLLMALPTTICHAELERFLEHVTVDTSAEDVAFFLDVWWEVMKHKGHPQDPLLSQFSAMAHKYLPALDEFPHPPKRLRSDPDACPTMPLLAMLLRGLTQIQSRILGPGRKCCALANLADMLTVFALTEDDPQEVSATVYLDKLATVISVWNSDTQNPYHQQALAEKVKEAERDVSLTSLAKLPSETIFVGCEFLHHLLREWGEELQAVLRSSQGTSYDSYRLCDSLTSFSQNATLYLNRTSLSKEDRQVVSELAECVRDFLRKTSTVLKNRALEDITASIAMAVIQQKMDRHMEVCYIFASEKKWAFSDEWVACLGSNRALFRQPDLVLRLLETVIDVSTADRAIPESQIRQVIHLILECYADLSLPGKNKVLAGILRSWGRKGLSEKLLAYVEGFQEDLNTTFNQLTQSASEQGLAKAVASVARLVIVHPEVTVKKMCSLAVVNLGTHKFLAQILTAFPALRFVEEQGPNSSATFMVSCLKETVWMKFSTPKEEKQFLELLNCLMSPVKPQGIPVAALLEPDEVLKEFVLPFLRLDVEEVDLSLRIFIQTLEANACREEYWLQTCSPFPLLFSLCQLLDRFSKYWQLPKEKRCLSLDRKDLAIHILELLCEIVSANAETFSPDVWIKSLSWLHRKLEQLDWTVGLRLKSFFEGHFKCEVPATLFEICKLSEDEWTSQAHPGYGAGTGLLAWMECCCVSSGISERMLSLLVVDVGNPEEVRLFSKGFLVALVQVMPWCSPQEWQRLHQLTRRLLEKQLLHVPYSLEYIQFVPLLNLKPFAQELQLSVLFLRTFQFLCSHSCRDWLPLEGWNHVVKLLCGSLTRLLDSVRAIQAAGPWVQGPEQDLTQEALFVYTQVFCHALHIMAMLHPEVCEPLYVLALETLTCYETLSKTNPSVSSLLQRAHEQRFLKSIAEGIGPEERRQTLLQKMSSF
UniProt Q9UHI6: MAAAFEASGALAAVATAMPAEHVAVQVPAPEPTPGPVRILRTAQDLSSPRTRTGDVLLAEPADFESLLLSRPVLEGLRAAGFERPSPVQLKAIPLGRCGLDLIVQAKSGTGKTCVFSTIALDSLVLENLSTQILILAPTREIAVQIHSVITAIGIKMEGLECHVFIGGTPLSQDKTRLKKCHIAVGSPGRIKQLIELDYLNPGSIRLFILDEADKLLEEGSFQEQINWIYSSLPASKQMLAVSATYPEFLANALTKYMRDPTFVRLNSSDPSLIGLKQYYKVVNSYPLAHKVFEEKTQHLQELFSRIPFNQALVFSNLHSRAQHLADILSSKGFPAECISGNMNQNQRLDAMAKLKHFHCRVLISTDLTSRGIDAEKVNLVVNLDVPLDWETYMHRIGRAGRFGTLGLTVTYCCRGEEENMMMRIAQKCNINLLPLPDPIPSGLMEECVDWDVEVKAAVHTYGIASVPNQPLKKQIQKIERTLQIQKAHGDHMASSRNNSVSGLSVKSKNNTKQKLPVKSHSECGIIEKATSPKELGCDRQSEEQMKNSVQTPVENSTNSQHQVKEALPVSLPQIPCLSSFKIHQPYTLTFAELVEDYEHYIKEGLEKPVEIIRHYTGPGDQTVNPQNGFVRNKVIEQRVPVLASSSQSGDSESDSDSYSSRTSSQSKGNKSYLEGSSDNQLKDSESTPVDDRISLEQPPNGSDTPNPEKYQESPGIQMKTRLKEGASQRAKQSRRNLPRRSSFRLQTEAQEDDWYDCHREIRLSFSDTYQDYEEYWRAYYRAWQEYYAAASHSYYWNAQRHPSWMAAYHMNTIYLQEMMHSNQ
UniProt O14893: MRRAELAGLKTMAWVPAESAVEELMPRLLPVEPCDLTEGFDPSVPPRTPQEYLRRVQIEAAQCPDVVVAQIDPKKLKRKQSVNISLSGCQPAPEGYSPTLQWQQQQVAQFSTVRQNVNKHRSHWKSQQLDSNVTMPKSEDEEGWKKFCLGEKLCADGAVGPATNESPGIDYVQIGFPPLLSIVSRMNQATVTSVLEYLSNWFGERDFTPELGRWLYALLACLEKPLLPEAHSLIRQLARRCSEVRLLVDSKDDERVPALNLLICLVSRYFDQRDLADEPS
UniProt Q12464: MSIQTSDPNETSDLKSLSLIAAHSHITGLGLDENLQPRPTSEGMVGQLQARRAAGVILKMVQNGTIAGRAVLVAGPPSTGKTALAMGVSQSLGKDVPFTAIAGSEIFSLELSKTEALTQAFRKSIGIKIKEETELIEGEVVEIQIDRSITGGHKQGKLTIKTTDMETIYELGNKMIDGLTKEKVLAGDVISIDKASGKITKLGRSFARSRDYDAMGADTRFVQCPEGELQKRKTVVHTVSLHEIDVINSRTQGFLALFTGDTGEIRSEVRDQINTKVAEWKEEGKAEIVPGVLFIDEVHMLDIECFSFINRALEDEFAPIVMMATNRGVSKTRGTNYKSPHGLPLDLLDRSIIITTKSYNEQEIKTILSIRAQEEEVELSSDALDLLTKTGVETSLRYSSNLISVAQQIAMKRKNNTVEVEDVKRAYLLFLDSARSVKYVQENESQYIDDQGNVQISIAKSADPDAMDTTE
UniProt Q16637: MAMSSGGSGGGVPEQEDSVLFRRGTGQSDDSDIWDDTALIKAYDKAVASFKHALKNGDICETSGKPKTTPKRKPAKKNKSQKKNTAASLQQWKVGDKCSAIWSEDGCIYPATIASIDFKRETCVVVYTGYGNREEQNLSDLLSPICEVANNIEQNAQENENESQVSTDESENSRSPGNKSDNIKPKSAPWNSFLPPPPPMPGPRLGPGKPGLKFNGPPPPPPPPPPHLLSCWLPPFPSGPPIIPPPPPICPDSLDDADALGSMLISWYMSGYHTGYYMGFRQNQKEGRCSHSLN
UniProt Q03940: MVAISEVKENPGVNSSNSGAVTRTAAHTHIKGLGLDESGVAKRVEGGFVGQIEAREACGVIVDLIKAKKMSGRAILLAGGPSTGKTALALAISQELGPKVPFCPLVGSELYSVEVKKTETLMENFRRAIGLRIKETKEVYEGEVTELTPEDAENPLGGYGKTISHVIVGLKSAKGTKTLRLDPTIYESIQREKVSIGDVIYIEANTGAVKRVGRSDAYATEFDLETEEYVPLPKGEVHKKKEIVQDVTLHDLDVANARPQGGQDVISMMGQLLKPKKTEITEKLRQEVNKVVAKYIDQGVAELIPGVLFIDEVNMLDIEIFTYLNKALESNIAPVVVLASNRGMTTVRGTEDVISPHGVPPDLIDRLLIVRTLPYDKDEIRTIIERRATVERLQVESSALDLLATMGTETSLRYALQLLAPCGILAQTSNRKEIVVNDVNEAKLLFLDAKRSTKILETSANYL
UniProt Q9Y265: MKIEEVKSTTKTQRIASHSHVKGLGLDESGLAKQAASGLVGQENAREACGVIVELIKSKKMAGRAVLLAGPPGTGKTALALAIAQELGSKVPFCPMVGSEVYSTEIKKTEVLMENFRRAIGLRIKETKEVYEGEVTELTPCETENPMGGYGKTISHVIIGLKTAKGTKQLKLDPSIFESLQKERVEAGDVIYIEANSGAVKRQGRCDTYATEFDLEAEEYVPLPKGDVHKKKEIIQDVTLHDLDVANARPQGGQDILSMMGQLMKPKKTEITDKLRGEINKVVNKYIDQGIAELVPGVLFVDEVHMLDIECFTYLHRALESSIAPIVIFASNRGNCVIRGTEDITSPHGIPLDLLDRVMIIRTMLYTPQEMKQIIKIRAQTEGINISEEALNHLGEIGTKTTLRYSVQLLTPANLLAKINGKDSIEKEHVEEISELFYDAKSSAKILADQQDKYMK

Tests used:
[1] = target: GST-NUFIP, recombinant (human) (UniProt Q9UHK0); assay: pull-down; 4 μg GST-NUFIP or GST on glutathione-Sepharose beads, incubated with E. coli total extracts in RSB 200 buffer treated with RNase A, 1 h at 4°C; western blot; only the target purified
[2] = target: T1, yeast Prp31p A226P (yeast) (UniProt P49704); assay: two-hybrid; yeast Prp31 (wild type and mutants) against Rsa1, Pih1, Rvb1, Rvb2, Hit1; CG1945 mated with Y187, diploids on -Leu-Trp-His plates containing 1.5 mM 3AT; wild-type strains
T1 sequence: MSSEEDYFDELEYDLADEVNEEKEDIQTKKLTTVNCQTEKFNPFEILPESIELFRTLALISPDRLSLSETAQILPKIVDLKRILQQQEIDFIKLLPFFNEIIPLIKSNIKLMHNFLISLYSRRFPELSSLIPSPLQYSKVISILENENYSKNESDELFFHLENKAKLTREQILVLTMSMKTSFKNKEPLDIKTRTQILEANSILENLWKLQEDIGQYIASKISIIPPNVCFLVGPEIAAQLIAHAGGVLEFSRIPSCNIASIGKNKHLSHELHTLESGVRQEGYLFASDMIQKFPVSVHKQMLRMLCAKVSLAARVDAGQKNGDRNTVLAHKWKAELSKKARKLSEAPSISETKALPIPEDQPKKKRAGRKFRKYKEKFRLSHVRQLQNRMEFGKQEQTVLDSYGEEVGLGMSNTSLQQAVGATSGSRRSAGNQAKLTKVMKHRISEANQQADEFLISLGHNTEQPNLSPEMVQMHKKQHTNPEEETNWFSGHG

[3] = target: T2, yeast Prp31 (Prp31p), wild type (yeast) (UniProt P49704); assay: as above
T2 sequence: T1 sequence with P226A

[4] = target: GFP-PRP31 K243A-A246R (human) (UniProt Q8WWY3); assay: co-IP; GFP-Trap immuno-precipitation of 293T cells transfected with GFP-PRP31 fusions; HNTG buffer, 2 h at 4°C; western blot of endogenous proteins
GFP-PRP31 A216P (human) = GFP-PRP31 A216P (human) (UniProt Q8WWY3); assay: as above
[5] = target: GFP-PRP31, wild type (human) (UniProt Q8WWY3); assay: as above
Gemin6, two-hybrid bait = Gemin6, two-hybrid bait (UniProt Q8WXD5); assay: two-hybrid; pACTII-NUFIP as prey, components of the SMN complex as bait; medium lacking histidine with increasing 3-AT
Gemin4, two-hybrid bait = Gemin4, two-hybrid bait (UniProt P57678); assay: as above
Gemin3, two-hybrid bait = Gemin3, two-hybrid bait (UniProt Q9UHI6); assay: as above
GFP-15.5K = target: T3, GFP-15.5K (UniProt P55769); assay: co-IP; GFP-Trap immuno-precipitation of 293T cells transfected with GFP constructs; extracts untreated or treated with RNase A; western blot with anti-SMN
T3 sequence: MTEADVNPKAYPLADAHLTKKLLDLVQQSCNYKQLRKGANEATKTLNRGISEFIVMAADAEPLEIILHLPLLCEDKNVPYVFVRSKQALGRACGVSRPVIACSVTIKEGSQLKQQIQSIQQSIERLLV

[6] = target: GFP-PRP31, wild type (human) (UniProt Q8WWY3); assay: as above
GFP-ZNHIT3 (human) = target: T4, GFP-ZNHIT3 (human) (UniProt Q15649); assay: as above
T4 sequence: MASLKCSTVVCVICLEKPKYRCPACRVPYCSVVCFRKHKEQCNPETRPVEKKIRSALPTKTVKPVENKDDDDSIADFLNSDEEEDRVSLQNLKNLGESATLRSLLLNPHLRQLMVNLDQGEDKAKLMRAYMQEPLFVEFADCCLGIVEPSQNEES

GFP-NUFIP (293T) (human) = GFP-NUFIP (293T) (human) (UniProt Q9UHK0); assay: as above
mRFP–LacI–Gemin6 = mRFP–LacI–Gemin6 (UniProt Q8WXD5); assay: LacI/LacO co-recruitment assay in cells; U2OS LacO cells co-transfected with GFP-NUFIP and an mRFP-LacI fusion; enrichment of GFP at the LacO spot by fluorescence microscopy
[7] = target: SMN complex, native, affinity purified through Flag-tagged Gemin2 (not stated | human (endogenous in HeLa)) (UniProt O14893)
[8] = target: T2, yeast Prp31 (Prp31p), wild type (yeast); assay: two-hybrid; as a1 but in a yeast strain deleted for Rsa1 (ΔRSA1); pACTII-yPRP31 against the indicated proteins
[9] = target: T2, yeast Prp31 (Prp31p), wild type (yeast); assay: two-hybrid; as a1 but in a yeast strain deleted for Pih1 (ΔPIH1); pACTII-yPRP31 against the indicated proteins
[10] = target: T1, yeast Prp31p A226P (yeast); assay: two-hybrid; yeast Prp31 (wild type and mutants) against Rsa1, Pih1, Rvb1, Rvb2, Hit1; CG1945 mated with Y187, diploids on -Leu-Trp-His plates containing 1.5 mM 3AT; wild-type strains; remark: listed apart in the source
[11] = target: T2, yeast Prp31 (Prp31p), wild type (yeast); assay: as above; remark: listed apart in the source
[12] = target: 3xFlag-PRP31 K243A-A246R (human) (UniProt Q8WWY3); assay: co-IP; anti-Flag immuno-precipitation of 293T cells co-transfected with 3xFlag-PRP31 (wild type or mutants) and GFP-15.5K; western blot
[13] = target: 3xFlag-PRP31 A216P (human) (UniProt Q8WWY3); assay: as above

- binding [1]: binds
Molecule: Gemin6, recombinant, in E. coli total extract (from UniProt Q8WXD5 1-167)

- binding [2]: binds
- binding [3]: binds
Molecule: Rvb2 (yeast homolog of RuvBL2) (from UniProt Q12464 1-471)

- binding (Gemin6, two-hybrid bait): binds
- binding (Gemin4, two-hybrid bait): binds
- binding (Gemin3, two-hybrid bait): binds
Molecule: NUFIP, two-hybrid prey (pACTII-NUFIP) (from UniProt Q9UHK0 1-495)

- binding (GFP-15.5K): no binding
- binding [6]: binds
- binding (GFP-ZNHIT3 (human)): binds weakly
- binding (GFP-NUFIP (293T) (human)): binds
Molecule: SMN (endogenous, 293T) (from UniProt Q16637 1-294)

- binding [4]: binds
- binding (GFP-PRP31 A216P (human)): binds
- binding [5]: binds
B1: ZNHIT3 (endogenous, 293T) (protein, UniProt Q15649 1-155)
chain: T4 sequence

- binding [10]: binds
- binding [11]: binds
B3: Rsa1 (yeast homolog of NUFIP) (protein, UniProt Q08932 1-381)
chain: MNYNNFENSKGDGHSRLPKPTYSGTLSDGYDESKIKRQKTDSAFNAAYSPHMYPNSPYYEGSWNTGYTPQLHHVAPHNQYFHPIQPSTQYNYTSPPNYTENYIPPVHQNISYAPALNLQKWPSSYCENTQALKNDKDYQTSISYEDVAIPTVKEIQLIEKNRGKDTFMNEISPVPSSKDQASAEPTEIPRKDPELANSNAEDDHNNLGLEDDDRDEQLESEGLGKVVLVPGTSIALITDEDVKKWREERKKMWLLKISNNKQKHMQEMGIKEDELKSQPSIFKESRKEKQFIQSIQNQVQRGNPKIDLNLKLIQREFANENSQLLDFIRELGDVGLLEYELSQQEKDVLFGSSEDNNKNHYKPNYKNRKPNLSRANFTRNK

- binding [12]: no binding
- binding [13]: binds
B4: GFP-15.5K (protein, UniProt P55769 1-128)
chain: T3 sequence

Further lines, the molecule ahead of its results:

Molecule: Rvb1 (yeast homolog of RuvBL1) (from UniProt Q03940 1-463)
- binding [2]: binds
- binding [3]: binds

Molecule: RuvBL1 (endogenous, 293T) (from UniProt Q9Y265 1-456)
- binding [4]: binds
- binding (GFP-PRP31 A216P (human)): binds
- binding [5]: binds

Molecule: GFP-NUFIP (U2OS LacO cells) (from UniProt Q9UHK0 1-495)
- binding (mRFP–LacI–Gemin6): binds

Molecule: NUFIP, in vitro translated (from UniProt Q9UHK0 1-495)
- binding [7]: binds

Molecule: Gemin3, recombinant, in E. coli total extract (from UniProt Q9UHI6 1-824)
- binding [1]: binds

Molecule: NUFIP (endogenous, 293T) (from UniProt Q9UHK0 1-495)
- binding [4]: binds
- binding (GFP-PRP31 A216P (human)): binds
- binding [5]: binds

B2: Hit1 (yeast homolog of ZNHIT3) (protein, UniProt P46973 1-164)
chain: MVSSAVKCGICRGVDGKYKCPKCGVRYCSLKCYKDAAKHVHKESEQPRAGTEANVEVVNNDKIINSSLAMNKTLKTKAFDDIYQNSAELQELLKYNTVKFHLAKVYRILSSTVNDGSSGKMNSDLQKELAVNYLNTLRYGGIHYNEAIEEFCQILLDKLNAVKK
- binding [8]: binds
- binding [9]: binds
- binding [10]: no binding
- binding [11]: binds

B5: 15.5K, recombinant, in E. coli total extract (protein, UniProt P55769 1-128)
chain: T3 sequence
- binding [1]: binds
